Results as given in the supplement of paper PMC4604168 (melanoma cell lines).
The other results are listed elsewhere or left out. Most values come without repeats; read them as rough.

System: A375
Test: cell count relative to DMSO control; melanoma cells; higher = more viable cells
Conditions: library dose: standard library concentration; 72 h
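Note: cells treated in 1,536-well plates, then fixed and DAPI-stained, with nuclei counted from automated high-throughput microscope images.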

Structure (SMILES)	cell count [%]
COc1cc(Nc2ncc(F)c(Nc3ccc4c(n3)NC(=O)C(C)(C)O4)n2)cc(OC)c1OC [Tamatinib] + NC(=O)Nc1cc(-c2cccc(F)c2)sc1C(=O)N[C@H]1CCCNC1 [AZD7762] (first compound 2 µM, partner dose 0.1 µM)	65.5
O=c1[nH]nc(Sc2ncc([N+](=O)[O-])s2)n1-c1ccc2c(c1)OCCO2 + Cc1ccc(Nc2nccc(N(C)c3ccc4c(C)n(C)nc4c3)n2)cc1S(N)(=O)=O [Pazopanib] (first compound 1 µM, partner dose 2 µM)	82.4
CC1(C)NC(=O)N(c2ccc([N+](=O)[O-])c(C(F)(F)F)c2)C1=O [nilutamide] + Cc1ccc(NC(=O)c2cccc(N(C)C)c2)cc1NC(=O)c1ccc(O)cc1 [ZM336372] (first compound 5 µM, partner dose 10 µM)	96.6
Cn1cncc1[C@@](N)(c1ccc(Cl)cc1)c1ccc2c(c1)c(-c1cccc(Cl)c1)cc(=O)n2C [tipifarnib] + COC(=O)c1sccc1S(=O)(=O)Nc1ccc(Nc2ccccc2)cc1OC [GSK0660] (first compound 0.05 µM, partner dose 5 µM)	100
O=c1[nH]nc(Sc2ncc([N+](=O)[O-])s2)n1-c1ccc2c(c1)OCCO2 + C[C@]1(O)C[C@@H](c2nc(-c3ccc4ccc(-c5ccccc5)nc4c3)c3c(N)nccn32)C1 [OSI906] (first compound 1 µM, partner dose 2 µM)	92.6
COc1cc(Nc2ncc(F)c(Nc3ccc4c(n3)NC(=O)C(C)(C)O4)n2)cc(OC)c1OC [Tamatinib] + Cc1ccc(NC(=O)c2cccc(N(C)C)c2)cc1NC(=O)c1ccc(O)cc1 [ZM336372] (first compound 2 µM, partner dose 10 µM)	77.1
O=c1[nH]nc(Sc2ncc([N+](=O)[O-])s2)n1-c1ccc2c(c1)OCCO2 + C[C@]1(c2nc3c(C(N)=O)cccc3[nH]2)CCCN1 [Veliparib] (first compound 1 µM, partner dose 7 µM)	86.5

System: C32
Test: as above
Conditions: library dose: standard library concentration; 72 h

Structure (SMILES)	cell count [%]
O=c1[nH]nc(Sc2ncc([N+](=O)[O-])s2)n1-c1ccc2c(c1)OCCO2 + Cc1nc(Nc2ncc(C(=O)Nc3c(C)cccc3Cl)s2)cc(N2CCN(CCO)CC2)n1 [dasatanib] (first compound 1 µM, partner dose 0.02 µM)	84.2
O=C(O)c1ccc(-c2c[nH]c3ncc(-c4ccccc4)cc23)cc1C1CCCC1 + O=S(=O)(c1ccccc1)N(CC(F)(F)F)c1ccc(C(O)(C(F)(F)F)C(F)(F)F)cc1 [T0901317] (first compound 0.8 µM, partner dose 7 µM)	94
Cn1cncc1[C@@](N)(c1ccc(Cl)cc1)c1ccc2c(c1)c(-c1cccc(Cl)c1)cc(=O)n2C [tipifarnib] + CN(NC(=O)CC(=O)NN(C)C(=S)c1ccccc1)C(=S)c1ccccc1 [STA4783] (first compound 0.05 µM, partner dose 0.03 µM)	24.7
O=c1[nH]nc(Sc2ncc([N+](=O)[O-])s2)n1-c1ccc2c(c1)OCCO2 + COc1ccc(-c2ccc3c(N4CCOCC4)nc(N4C[C@@H](C)O[C@@H](C)C4)nc3n2)cc1CO [KU0063794] (first compound 1 µM, partner dose 0.1 µM)	98.5
Cn1cncc1[C@@](N)(c1ccc(Cl)cc1)c1ccc2c(c1)c(-c1cccc(Cl)c1)cc(=O)n2C [tipifarnib] + CN(C)S(=O)(=O)c1ccc2c(c1)/C(=C/c1cc3c([nH]1)CCCC3)C(=O)N2 [SU6656] (first compound 0.05 µM, partner dose 2 µM)	66.1
O=C(Nc1cccc(Cl)c1)Nc1ncc(CCNc2ncnc3ccsc23)s1 + O=C(O)c1ccc(-c2c[nH]c3ncc(-c4ccccc4)cc23)cc1C1CCCC1 [GSK650394] (first compound 0.004 µM, partner dose 0.8 µM)	68.5
O=c1[nH]nc(Sc2ncc([N+](=O)[O-])s2)n1-c1ccc2c(c1)OCCO2 + C#Cc1cccc(Nc2ncnc3cc(OCCOC)c(OCCOC)cc23)c1 [erlotinib] (first compound 1 µM, partner dose 4 µM)	84.2
O=c1[nH]nc(Sc2ncc([N+](=O)[O-])s2)n1-c1ccc2c(c1)OCCO2 + C[C@@H](N)c1ccc(C(=O)Nc2ccnc3[nH]ccc23)cc1 [RKI983] (first compound 1 µM, partner dose 2 µM)	63.9
COc1cc(Nc2ncc(F)c(Nc3ccc4c(n3)NC(=O)C(C)(C)O4)n2)cc(OC)c1OC [Tamatinib] + CC(C)(C)c1cnc(CSc2cnc(NC(=O)C3CCNCC3)s2)o1 [SNS-032] (first compound 2 µM, partner dose 0.05 µM)	83.1
O=c1[nH]nc(Sc2ncc([N+](=O)[O-])s2)n1-c1ccc2c(c1)OCCO2 + NCC(=O)Nc1ccc(-n2nc(C(F)(F)F)cc2-c2ccc3c(ccc4ccccc43)c2)cc1 [OSU03012] (first compound 1 µM, partner dose 5 µM)	110
O=c1[nH]nc(Sc2ncc([N+](=O)[O-])s2)n1-c1ccc2c(c1)OCCO2 + CN(NC(=O)CC(=O)NN(C)C(=S)c1ccccc1)C(=S)c1ccccc1 [STA4783] (first compound 1 µM, partner dose 0.03 µM)	11.3
C[C@@H]1CCN(C(=O)CC#N)C[C@@H]1N(C)c1ncnc2[nH]ccc12 + O=C(Nc1ccccc1)c1cc([N+](=O)[O-])ccc1Cl [GW9662] (first compound 5 µM, partner dose 10 µM)	90.1
O=c1[nH]nc(Sc2ncc([N+](=O)[O-])s2)n1-c1ccc2c(c1)OCCO2 + NC1(c2ccc(-c3nc4ccn5c(=O)[nH]nc5c4cc3-c3ccccc3)cc2)CCC1 [MK2206] (first compound 1 µM, partner dose 2 µM)	85.8
C[C@@H]1CCN(C(=O)CC#N)C[C@@H]1N(C)c1ncnc2[nH]ccc12 + O=C(O)c1ccc(-c2c[nH]c3ncc(-c4ccccc4)cc23)cc1C1CCCC1 [GSK650394] (first compound 5 µM, partner dose 0.8 µM)	93.5
CC1(C)NC(=O)N(c2ccc([N+](=O)[O-])c(C(F)(F)F)c2)C1=O [nilutamide] + O=C(O)c1ccc(-c2c[nH]c3ncc(-c4ccccc4)cc23)cc1C1CCCC1 [GSK650394] (first compound 5 µM, partner dose 0.8 µM)	102
O=c1[nH]nc(Sc2ncc([N+](=O)[O-])s2)n1-c1ccc2c(c1)OCCO2 + O=C(/C=C/c1cccnc1)NCCCCC1CCN(C(=O)c2ccccc2)CC1 [FK866] (first compound 1 µM, partner dose 0.05 µM)	121
O=c1[nH]nc(Sc2ncc([N+](=O)[O-])s2)n1-c1ccc2c(c1)OCCO2 + CC1(C)NC(=O)N(c2ccc([N+](=O)[O-])c(C(F)(F)F)c2)C1=O [nilutamide] (first compound 1 µM, partner dose 5 µM)	95.6
O=c1[nH]nc(Sc2ncc([N+](=O)[O-])s2)n1-c1ccc2c(c1)OCCO2 + C=CCn1c(=O)c2cnc(Nc3ccc(N4CCN(C)CC4)cc3)nc2n1-c1cccc(C(C)(C)O)n1 [MK1775] (first compound 1 µM, partner dose 0.1 µM)	82.8
O=c1[nH]nc(Sc2ncc([N+](=O)[O-])s2)n1-c1ccc2c(c1)OCCO2 + Cn1cncc1[C@@](N)(c1ccc(Cl)cc1)c1ccc2c(c1)c(-c1cccc(Cl)c1)cc(=O)n2C [tipifarnib] (first compound 1 µM, partner dose 0.05 µM)	91.1
CC1(C)NC(=O)N(c2ccc([N+](=O)[O-])c(C(F)(F)F)c2)C1=O [nilutamide] + C=CCn1c(=O)c2cnc(Nc3ccc(N4CCN(C)CC4)cc3)nc2n1-c1cccc(C(C)(C)O)n1 [MK1775] (first compound 5 µM, partner dose 0.1 µM)	76.3
COc1cc(Nc2ncc(F)c(Nc3ccc4c(n3)NC(=O)C(C)(C)O4)n2)cc(OC)c1OC [Tamatinib] + C=CCn1c(=O)c2cnc(Nc3ccc(N4CCN(C)CC4)cc3)nc2n1-c1cccc(C(C)(C)O)n1 [MK1775] (first compound 2 µM, partner dose 0.1 µM)	78.6
COc1cc(Nc2ncc(F)c(Nc3ccc4c(n3)NC(=O)C(C)(C)O4)n2)cc(OC)c1OC [Tamatinib] + O=C(Nc1cccc(Cl)c1)Nc1ncc(CCNc2ncnc3ccsc23)s1 [SNS314] (first compound 2 µM, partner dose 0.004 µM)	62.6
O=c1[nH]nc(Sc2ncc([N+](=O)[O-])s2)n1-c1ccc2c(c1)OCCO2 + COc1ccc(C2=N[C@@H](c3ccc(Cl)cc3)[C@@H](c3ccc(Cl)cc3)N2C(=O)N2CCNC(=O)C2)c(OC(C)C)c1 [Nutlin-3] (first compound 1 µM, partner dose 0.5 µM)	99.8
O=C(O)c1ccc(-c2c[nH]c3ncc(-c4ccccc4)cc23)cc1C1CCCC1 + NCC(=O)Nc1ccc(-n2nc(C(F)(F)F)cc2-c2ccc3c(ccc4ccccc43)c2)cc1 [OSU03012] (first compound 0.8 µM, partner dose 5 µM)	100
C[C@@H]1CCN(C(=O)CC#N)C[C@@H]1N(C)c1ncnc2[nH]ccc12 + COc1cc2ncnc(Nc3ccc(Oc4ccccc4)cc3)c2cc1OC [SrcI1] (first compound 5 µM, partner dose 10 µM)	103
